Assay results published in PubChem BioAssay (Tox21).
Values joined by “and” are separate entries in the source; they are usually repeats but may differ in a detail not shown here. Identical values can stand only once. Inconclusive results, whose numbers are uncertain, are shown with a selection of clear calls. Potencies beside an inconclusive call are fits to weak or partial responses and may not hold up. The source holds several records for some structures; these can differ, active in one and inactive in another. Active and inactive are the calls of the source. Calls follow the shape of the dose curve; as a rule, active = well fitted inhibition curve with a large enough effect in the repeat runs; inconclusive = weak or mixed curves; inactive = no such curve, though single readings can be large or run the other way.

Each molecule was assayed against Cytochrome P450 1A2 (Homo sapiens) (UniProt P05177) (assay: Cytochrome P450 Family 1 Subfamily A Member 2 (CYP1A2) small molecule antagonists: luciferase reporter qHTS assay (AID 1671199; also: nearly all actives have a fitted effect of over 50% in size)). Conditions: P450-Glo CYP1A2 enzyme, luciferin luminescence, 1 h; series mostly up to 115 µM; activity change, negative = inhibition: at the top concentration.
Sequence of UniProt P05177 (P05177 whole entry, looked up): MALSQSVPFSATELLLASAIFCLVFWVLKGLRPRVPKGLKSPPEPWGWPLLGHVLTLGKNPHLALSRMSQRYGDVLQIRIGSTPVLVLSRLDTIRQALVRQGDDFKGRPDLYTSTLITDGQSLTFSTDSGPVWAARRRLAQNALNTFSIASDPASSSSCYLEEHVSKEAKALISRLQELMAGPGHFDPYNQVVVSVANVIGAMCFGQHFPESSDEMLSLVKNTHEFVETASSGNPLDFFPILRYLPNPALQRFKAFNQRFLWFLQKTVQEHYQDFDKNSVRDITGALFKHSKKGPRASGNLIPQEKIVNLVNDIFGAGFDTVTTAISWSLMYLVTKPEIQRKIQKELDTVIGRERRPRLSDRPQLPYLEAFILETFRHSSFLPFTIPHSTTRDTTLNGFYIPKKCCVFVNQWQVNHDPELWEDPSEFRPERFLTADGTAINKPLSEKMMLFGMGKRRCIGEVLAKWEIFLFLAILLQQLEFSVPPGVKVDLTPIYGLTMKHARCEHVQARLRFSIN
How it was run: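 Quantitative high-throughput format using the P450-Glo CYP1A2 system. Reaction initiated by NADPH regeneration solution, 1 h at room temperature, then stopped with detection reagent; luminescence measured 20 min later.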
% is scaled to controls: 0 for no effect and ±100 for the full control effect; potency is read from the fitted curve at half-maximal effect; tags tell the direction and shape of the fitted curve.

| SMILES | Potency | activity change, negative = inhibition |
| --- | --- | --- |
| O=C(c1ccccc1)C(O)c1ccccc1 (stereo unspecified) | inconclusive: 39.9 µM [inhibitor, partial curve] | – |
| [O-][n+]1cccc(/C(Cl)=N/OC[C@@H](O)CN2CCCCC2)c1 | – | inactive: 13.8% [at 53 µM] |
| Oc1ccc2c(c1)OC[C@@H](N1CCC(O)(c3ccc(F)cc3)CC1)[C@H]2O | active: 7.76 µM | – |
| CCC[C@H](N[C@@H](C)C(=O)N1[C@H](C(=O)O)C[C@@H]2CCCC[C@@H]21)C(=O)OCC | active: 17.4 µM | inactive: -10.6% [at 23.6 µM] |
| Cc1c(N(C)CS(=O)(=O)O)c(=O)n(-c2ccccc2)n1C | inconclusive: 35.3 µM [inhibitor, partial curve] and inconclusive: 27.5 µM [inhibitor, partial curve] | – |
